Reference: PubChem BioAssay AID463173 (ICCB-Longwood Screening Facility, Harvard Medical School, 2010)
About 4,300 (8.3%) of roughly 52,000 compounds were called active. Cut-off read from the data, not from the text of the source: active = survival mostly below about 52% (no sharp cut-off); inactive = mostly above about 56%. Some of the results follow.

Tested on: DeltatarO mutant
Assay: S. aureus survival, RN4220 and DeltatarO strains – OD600, teichoic acid synthesis inhibitors, primary screen (AID 463173)
Conditions: S. aureus RN4220 wild type/DeltatarO growth, OD600, 18 h, stronger effect = lower value, screened at 18.75 µg/mL (by protocol)

Structure (SMILES)	survival
CC(C)=C1C2C=CC1C1C(=O)N(CCO)C(=O)C21 (configuration not stated)	inactive: 100%
COc1ccc(-c2oc3ncn4nc(COc5cccc(C)c5C)nc4c3c2-c2ccc(OC)cc2)cc1	inactive: 73%
COc1cc(Nc2nc(SCc3ccc(Cl)cc3)nc3ccccc23)cc(OC)c1	inactive: 91%
COc1cccc(C(=O)Nc2nc3nc(-c4ccccc4)cc(=O)n3[nH]2)c1	inactive: 71%
C=C(C)C1Cc2cc(/C=C/C(=O)O)c(O)cc2O1 (configuration not stated)	inactive: 80%
COc1ccccc1C(=O)Nc1ccc2nc(SCCOc3ccccc3C)sc2c1	inactive: 65%
CC(C)c1ccc(N2C(=O)CSC23C(=O)N(Cc2cccc(F)c2)c2ccccc23)cc1 (configuration not stated)	inactive: 74%
COc1ccc(OC)c(CNC(=O)C2CCCN(c3ncnc4onc(-c5ccc(F)cc5)c34)C2)c1 (configuration not stated)	inactive: 90%
Fc1ccc(NCc2nnc3n2CCCCC3)cc1Cl	inactive: 102%
CCC(C(=O)NCc1cc(OC)ccc1OC)n1nc(C)c2sc3ccccc3c2c1=O (configuration not stated)	inactive: 80%
O=C(O)C1=NN(c2ccccc2)C(=O)C1	inactive: 78%
CN(C)c1cccc(C(=O)N2CCC(c3c[nH]c4ccccc34)(c3c[nH]c4ccccc34)CC2)c1	inactive: 101%
Cc1cccc(CNC(=O)c2ccc(N3Cc4ccccc4Oc4ncccc43)s2)c1	inactive: 84%
COc1cccc(C(=O)N2CCC(C(=O)Nc3cccc(Cl)c3)CC2)c1	inactive: 53%
CCC1Oc2ccc(C)cc2N(CC(=O)N(Cc2ccc3c(c2)OCO3)CC2CCCO2)C1=O (configuration not stated)	inactive: 96%
COc1cc(C(=O)Nc2ccc(NC(=O)c3ccc(C(C)(C)C)cc3)cc2)cc(OC)c1OC	inactive: 132%
O=C(COCc1cc(-c2cccs2)on1)N1CCN(c2ccccc2)CC1	inactive: 72%
CCOc1ccc(CNC(=O)C2CCN(c3nnc(-n4c(C)ccc4C)s3)CC2)cc1	inactive: 70%
Cc1ccc(NC(=O)c2oc3ccccc3c2NC(=O)Cc2ccccc2)cc1	inactive: 85%

Structure (SMILES)	survival
CCOc1ccc(S(=O)(=O)N2CCN(c3cccc(C(F)(F)F)c3)CC2)cc1OCC	inactive: 59%
COc1ccccc1NC(=O)CSC1=Nc2ccccc2C2=NC(Cc3ccccc3)C(=O)N12 (configuration not stated)	inactive: 124%
O=C(OCCCN1CCOCC1)c1ccc(O)cc1O	inactive: 92%
CCN(CC)CCNC(=O)C(=O)NCC(c1ccc2c(c1)OCO2)N1CCOCC1 (configuration not stated)	inactive: 115%
O=C(CSc1cn(CC(=O)N2CCCCC2)c2ccccc12)NCc1ccccc1	inactive: 87%
CCOc1ccc(-c2nnc(SCC(=O)NCc3ccccc3Cl)o2)cc1	inactive: 81%
CCOC(=O)C1CC1c1ccccc1 (configuration not stated)	inactive: 81%
O=C(NCc1ccccc1)C(=O)NCC(c1ccco1)S(=O)(=O)c1ccc(Cl)cc1 (configuration not stated)	inactive: 89%
CN(C)c1nc(C2CC2)nc2c1nnn2Cc1ccccc1Cl	inactive: 106%
COc1ccccc1-c1nnc(C2CCN(C(=O)c3cccc(C)c3)CC2)o1	inactive: 88%
COc1cccc(Cn2c(=O)n(-c3cccc(Cl)c3)c(=O)c3c4c(sc32)CN(C(C)=O)CC4)c1	inactive: 59%
C=CCC(CC=C)(CNC(=O)C(=O)Nc1ccc(C)cc1)c1ccccc1	inactive: 77%
CCOc1cc(OCC)cc(C(=O)Nc2cccc(-c3nc4ccccc4[nH]3)c2)c1	active: 36%
CCOc1ccc(NC(=O)CN2CCN(S(=O)(=O)c3ccc(OC)cc3)CC2)cc1	inactive: 81%
CC(C)(O)C1Cc2cc3ccc(=O)oc3cc2O1 (configuration not stated)	inactive: 80%
CCc1nc2c(cnn2-c2ccc(C)cc2)c(=O)n1Cc1ccccc1	inactive: 51%
COc1ccc(Cl)cc1C(=O)NCc1ccco1	inactive: 81%
Cc1cc(C)c(S(=O)(=O)NCC(c2ccco2)N2CCOCC2)c(C)c1 (configuration not stated)	inactive: 89%
CCOC(=O)N1CCc2c(sc3c2c(=O)n(Cc2ccccc2)c(=O)n3Cc2cccc(C)c2)C1	inactive: 83%

Structure (SMILES)	survival
Cc1ccc(-c2onc(C)c2C)cc1S(=O)(=O)NCc1ccc(N(C)C)cc1	active: -2%
CCc1ccc(NC(=O)Cn2c(=O)n(CCCCC(=O)NCc3ccccc3Cl)c(=O)c3ccccc32)cc1	inactive: 90%
COc1cc2nc(NC(=O)c3ccccc3)[nH]c(=O)c2cc1OC	inactive: 90%
Cc1cc(C)cc(-n2cnc3cc(C(=O)NC4CCCCCC4)ccc32)c1	inactive: 95%
Cc1ccc(CCNC(=O)c2ccc3[nH]c(C)c(C)c3c2)cc1	inactive: 116%
COc1ccc(CCNC(=O)c2cc3n(n2)CCCN(Cc2ccc(C)cc2)C3=O)cc1OC	inactive: 83%
Cc1c2cnn(CC(=O)N3CCN(c4ccccc4)CC3)c(=O)c2c(C)n1Cc1ccccc1Cl	inactive: 78%
CCCCN(C)CCCNC(=O)C1CCN(S(=O)(=O)CC)CC1	inactive: 108%
CSc1ncc(Cl)c(C(=O)Nc2ccc(S(=O)(=O)Nc3nccc(C)n3)cc2)n1	inactive: 81%
CC(=O)c1ccc(NC(=O)CCc2c(C)nc3c(c2C)c(=O)n(C)c(=O)n3C)cc1	inactive: 101%
CC(=O)C1=C(c2ccccc2)N(C(C)=O)n2c(nnc2C2CCCCC2)S1	inactive: 134%
CCCCN(C)CCCNC(=O)CN1N=C(c2ccc(OC)cc2)CCC1=O	inactive: 67%
COc1ccc(-n2nc3cc(C)c(NC(=O)c4ccc(-c5ccc(Br)cc5)o4)cc3n2)cc1	active: 37%
COc1cc(OC)cc(C(=O)Nc2cc3c(cc2N2CCOCC2)n(C)c(=O)n3C)c1	inactive: 83%
Cc1cc(C)n(CCc2nc3c4ccccc4nc(N4CCN(c5cccc(C)c5C)CC4)n3n2)n1	inactive: 86%
CC(=O)c1cccc(-n2c(=O)c3c4c(sc3n(Cc3cccc(C)c3)c2=O)CN(C(C)=O)CC4)c1	inactive: 89%
Cc1cccc(NC(=O)CN2C(=O)C(c3ccccc3)=NC23CCC(C)CC3)c1 (configuration not stated)	inactive: 77%
O=C(NCc1ccccc1F)c1sc2ncccc2c1-n1cccc1	inactive: 83%
CCn1cc2nc(SCC(=O)Nc3ccc(C)cc3)n(Cc3ccc(C)cc3)c(=O)c2n1	inactive: 69%
